± gives the standard error. Variants at the floor of the assay are shown more often than the library holds them.
B1: glmS ribozyme (parent)
chain: AUAAAAGCGCCAGAACUACAGAAAUGUAGUUGACGAGGAGGAGGUUUAUCGAAUUUUCGGCGGAUGCCUCCAAA

How the values were obtained:
Conditions in all cases: with glucosamine-6-phosphate
glucosamine-6-phosphate [1] = variants of: B1; test: self-cleavage kobs at 640 uM GlcN6P; higher = faster cleavage; RNA array
In short: (§1)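 Weighted Michaelis–Menten fits across concentrations supplied kcat and KM, based on kobs from one- or two-exponential decay fits to normalised per-tile medians. The data came from barcoded ribozyme variants transcribed in situ by E. coli RNA polymerase on sequenced MiSeq chips and tracked at 37 °C by a hybridised Cy3 probe. Glucosamine-6-phosphate (40 μM to 10 mM) in HEPES/KCl/Mg(OAc)2 buffer was flowed in.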

glucosamine-6-phosphate [2] = variants of: B1; test: self-cleavage kobs at 160 uM GlcN6P; higher = faster cleavage; RNA array
In short: as §1

glucosamine-6-phosphate [3] = variants of: B1; test: self-cleavage kobs at 2500 uM GlcN6P; higher = faster cleavage; RNA array
In short: as §1

glucosamine-6-phosphate [4] = variants of: B1; test: self-cleavage kobs at 10000 uM GlcN6P; higher = faster cleavage; RNA array
In short: as §1

Row | Variant | self-cleavage kobs at 640 uM GlcN6P (glucosamine-6-phosphate [1]) [s⁻¹] | self-cleavage kobs at 160 uM GlcN6P (glucosamine-6-phosphate [2]) [s⁻¹] | self-cleavage kobs at 2500 uM GlcN6P (glucosamine-6-phosphate [3]) [s⁻¹] | self-cleavage kobs at 10000 uM GlcN6P (glucosamine-6-phosphate [4]) [s⁻¹]
1 | U30C C71U | 9.35e-05 ± 1e-05 | 4.2e-05 ± 6.8e-06 | 0.000195 ± 1.6e-05 | 0.000307 ± 2.3e-05
2 | U30C G32A | 0.000321 ± 4.3e-05 | 0.000106 ± 1.2e-05 | 0.000932 ± 8.8e-05 | 0.00181 ± 0.00026
3 | U30C G32U C34G G51U | < 1e-05 |  | < 1e-05 | 
4 | U30C G37U A39C A48U | < 1e-05 |  |  | 
5 | U30C G43U U46A U55G G60A | < 1e-05 |  | < 1e-05 | < 1e-05
6 | U30C G44C | < 1e-05 | < 1e-05 | < 1e-05 | 
7 | U30C G44U | < 1e-05 |  | < 1e-05 | < 1e-05
8 | U30C G62U U65C | < 1e-05 |  |  | 
9 | U30C U31A U45A | 0.00111 ± 0.00052 |  | 0.000661 ± 0.0003 | 
10 | U30C U31G C50G C70G | 0.000289 ± 0.0001 | 0.000158 ± 4.4e-05 | 0.00026 ± 5.8e-05 | 
11 | U30C U47A C61G | < 1e-05 |  |  | 
12 | U30G A33C C34A G44U C68U | < 1e-05 |  | < 1e-05 | 
13 | U30G A33C G40C U54A A64C | < 1e-05 |  | < 1e-05 | 
14 | U30G A33U A39G G63A | < 1e-05 |  | < 1e-05 | < 1e-05
15 | U30G A33U G43U G59U | < 1e-05 | < 1e-05 | < 1e-05 | 
16 | U30G A39G G59U | < 1e-05 |  |  | 
17 | U30G C68G C70G | < 1e-05 |  | < 1e-05 | 
18 | U30G G32A A33U U49A C67A | < 1e-05 |  |  | 
19 | U30G G37C A64U | < 1e-05 |  |  | 
20 | U30G G38A U46G A52U C71U | < 1e-05 | < 1e-05 |  | 
21 | U30G G40A G51U G60U C68U C71G | < 1e-05 |  |  | 
22 | U30G G41A U57C C67U | < 1e-05 |  |  | 
23 | U30G G51A C61U | < 1e-05 | < 1e-05 |  | 
24 | U30G U46C U47G | 8.33e-05 ± 2.2e-05 |  |  | 
25 | U31A A33C U46G C68G | < 1e-05 |  | < 1e-05 | 
26 | U31A A33G G40A C50U G60U | < 1e-05 |  |  | 
27 | U31A A36C A39C U54G G66U | < 1e-05 |  | < 1e-05 | 
28 | U31A A36G C68U | < 1e-05 |  |  | 
29 | U31A A42U G63U | < 1e-05 |  | < 1e-05 | < 1e-05

— the supplement of paper PMC7125110
